The full ranking holds about 110,000 compounds; the median of “z-score” is about -0.1, and the highest 2% start at about 2. The list shows a part of the results. Calls of active or inactive are those of the source.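 How the source made its calls: active means z-score in the third read window above 3 or below -3; inactive means the rest.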 Residues, ends and D or L forms follow the SMILES beside them. *: point of attachment. Boc = CC(C)(C)OC(=O)*

This experiment concerns the target Metabotropic glutamate receptor 8 (Rattus norvegicus) (UniProt P70579). The experiment can be described thus: mGluR8 Gi/Go-coupled signaling modulation – cell-based, rat, thallium flux, HTS, primary screen (AID 488969). The settings on record: HEK293 rat mGluR8, GIRK (G protein-gated inwardly rectifying potassium channel) thallium flux, FluoZin2; at 10 µM; stronger effect = higher value; submaximal glutamate (EC20) added with thallium.
UniProt P70579, sequence (P70579 whole entry, looked up): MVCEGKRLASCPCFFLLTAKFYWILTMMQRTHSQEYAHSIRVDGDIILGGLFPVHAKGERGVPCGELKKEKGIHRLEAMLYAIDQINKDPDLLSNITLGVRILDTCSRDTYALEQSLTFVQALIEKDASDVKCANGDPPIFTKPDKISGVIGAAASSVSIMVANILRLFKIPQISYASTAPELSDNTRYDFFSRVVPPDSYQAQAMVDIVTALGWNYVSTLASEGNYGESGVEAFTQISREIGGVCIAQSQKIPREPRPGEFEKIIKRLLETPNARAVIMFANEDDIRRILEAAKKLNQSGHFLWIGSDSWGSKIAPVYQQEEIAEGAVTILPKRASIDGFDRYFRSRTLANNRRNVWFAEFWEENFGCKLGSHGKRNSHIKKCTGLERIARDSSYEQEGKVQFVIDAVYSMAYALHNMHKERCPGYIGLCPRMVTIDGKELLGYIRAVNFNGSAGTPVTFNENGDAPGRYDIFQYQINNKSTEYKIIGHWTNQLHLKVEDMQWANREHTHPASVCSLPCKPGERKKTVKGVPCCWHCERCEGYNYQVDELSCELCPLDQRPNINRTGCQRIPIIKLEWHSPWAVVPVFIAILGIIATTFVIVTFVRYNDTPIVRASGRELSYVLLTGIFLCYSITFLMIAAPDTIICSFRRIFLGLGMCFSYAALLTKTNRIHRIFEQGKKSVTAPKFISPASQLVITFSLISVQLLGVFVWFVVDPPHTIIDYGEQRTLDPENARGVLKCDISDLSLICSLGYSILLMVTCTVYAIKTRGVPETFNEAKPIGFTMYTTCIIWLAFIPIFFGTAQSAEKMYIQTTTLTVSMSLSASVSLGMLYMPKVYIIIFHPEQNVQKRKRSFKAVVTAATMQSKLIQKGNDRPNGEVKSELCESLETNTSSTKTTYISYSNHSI
`CC(c1cccnc1)N(C(=O)Nc1ccccc1)C1CCCCC1` (stereo not given) gave a z-score of -0.238.

In turn, `CCc1ccc(NS(=O)(=O)c2ccc3[nH]cc(C(=O)N4CCCCC4)c(=O)c3c2)cc1` came in with a z-score of 0.372.

For the compound `CCOn1c(=O)c(-c2ccc(Cl)cc2)[n+]([O-])c2ccccc21`, the z-score came out at 0.119.

The compound `Cc1ccc(C(=O)N/C(=C/C=C/c2ccccc2)C(=O)NCc2ccco2)cc1` yielded a z-score of -0.176.

Compound `NC(=O)CNC(=O)[C@@H]1CC2(CC(c3cccc(Br)c3)=NO2)CN1C(=O)c1ccc(Br)cc1` (stereo not given in full) returned a z-score of -0.0921.

`COc1ccc(C/C(O)=C(\C#N)c2nc3ccccc3s2)cc1` gave a z-score of -0.184.

Turning to `CN1CCN(C(=O)C(Cc2ccccc2)NS(=O)(=O)c2ccc3c(c2)CCC(=O)N3)CC1` (stereo not given), the z-score worked out at 0.00384.

Turning to `CCc1cc2c(-c3ccccc3)cc(=O)oc2cc1OC(=O)c1cccs1`, the z-score was -0.301.

For the compound `COc1ccc(Nc2nc(CC(C)=O)ns2)cc1`, the z-score was 0.0451.

Compound `CC(=O)c1c(C)[nH]c(C(=O)CSc2nc3ccc(C)cc3[nH]2)c1C` returned a z-score of -0.553.

Compound `COc1ccc(N2CCN(C(=O)CSc3nnc4c(C)cc5c(C)cc(C)cc5n34)CC2)cc1` had a z-score of 0.274.

In turn, `Cc1ccc(S(=O)(=O)N2CCCC2C(=O)OCc2nc3ccccc3s2)cc1` (stereo not given) had a z-score of -2.03.

For the compound `CCC(C)n1c(=S)[nH]c2c(sc3ccc([N+](=O)[O-])cc32)c1=O` (stereo not given), the z-score is active: 9.11.

In turn, `C#CCN1C(=O)C(O)(CC(=O)c2cccc(OC)c2)c2ccccc21` (stereo not given) had a z-score of 0.151.

Compound `COc1cccc(NC(=S)NN2C(C)CCCC2C)c1` (stereo not given) registered a z-score of -0.022.

The compound `CCn1c(COc2ccc(=O)n(-c3ccccc3)n2)nnc1SCc1ccc(C)cc1` had a z-score of -0.691.

`CC(C)c1nc2ccc(NC(=O)C3CCCCC3)cc2[nH]1`: the z-score is -0.295.

For the compound `CC(C)Cn1c(CN2C(=O)c3ccccc3C2=O)nc2ccccc2c1=O`, the z-score was -0.855.

`Nc1n[nH]c(-c2ccccc2)n1` displayed a z-score of 0.189.

With `COC(=O)C(C)N(C#N)c1nc(C)cc(C)n1` (stereo not given), the z-score is -0.0133.

Consider `CCCCCCCCOC(=O)C[N+](C)(C)C/C=C(/C)Cl`, for which the z-score is 0.0563.

For `Cc1ccc(C2C3=C(CCCC3=O)Nc3[nH]c(=S)[nH]c(=O)c32)cc1` (stereo not given), the z-score is -0.451.

Consider `COc1ccc(OC)c(S(=O)(=O)Nc2ccc(Oc3ccccc3)cc2)c1`, for which the z-score amounted to 0.377.

`CCOc1ccc(-n2c(N)c(C(=O)NCc3cccnc3)sc2=S)cc1`: the z-score was -0.222.

For `CC(=O)Nc1ccc(C(=O)/C=C/c2ccco2)cc1`, the z-score was -0.0867.

`O=C(Nc1ccccc1)N1CCC(C(=O)N2CCN(S(=O)(=O)c3cccc(F)c3)CC2)CC1`: the z-score turned out to be 0.549.

`C=C(C)c1cccc(C(C)(C)NC(=O)Nc2cc(C)ccn2)c1` had a z-score of -0.139.

In the case of `CN1/C(=N\O)c2cccc3cccc1c23`, the z-score was -0.248.

Consider `CN1CCC(=NNC(=O)C(=O)NC2CCCC2)CC1`, for which the z-score is -0.0552.

Turning to `Cn1c(=O)oc2cc(S(=O)(=O)N3CCC(C(=O)NCc4cccs4)CC3)ccc21`, the z-score amounted to 0.158.

Compound `O=C(NCCC(c1ccccc1)c1ccccc1)c1cccs1` showed a z-score of -0.775.

Regarding `O=C(Nc1cccnc1)C1(c2ccc(Cl)cc2)CCCC1`, the z-score is -0.598.

In turn, `CC1=N/C(=C\c2ccc(OC(C)C)cc2)C(=O)N1c1ccc(C(=O)O)cc1` gave a z-score of -0.411.

For the compound `O=C(NCc1ccco1)C1OCCc2ccccc21` (stereo not given), the z-score stood at 0.314.

`Cc1cc(=O)n(CCc2ccccc2)c(O)c1C#N`: the z-score came to 1.62.

In the case of `N#Cc1ccc(-c2ccc(F)cc2)nc1Sc1ccccc1`, the z-score is -0.196.

Regarding `COC(=O)CON1C(=O)c2ccccc2C1=O`, the z-score is -0.601.

Compound `CC(CCc1ccccc1)NC(=O)c1cncc(Br)c1` (stereo not given) displayed a z-score of -0.167.

On to `Cc1cccc(C(=O)N(C)c2nnc(-c3ccncc3)s2)c1`, for which the z-score was determined as 0.174.

The compound `CCCCOc1ccc(C(=O)NN2CCN(C)CC2)cc1` registered a z-score of -0.111.

On to `CCC(C)NC(=O)C1CCCN(C(=O)NC2CCCCC2)C1` (stereo not given), for which the z-score came to 1.16.

On to `COC(=O)c1ccc2c(=O)n(CCN3CCOCC3)c(SCC(=O)C(C)(C)C)nc2c1`, for which the z-score was -0.157.

The compound `O=C(N/N=C/c1ccc(Cl)c([N+](=O)[O-])c1)c1ccc2nc[nH]c2c1` gave a z-score of -0.2.

As for `CCOc1ccc(N2CC(C(=O)NCCN3C(=O)S/C(=C\c4ccc(OC)c(OC)c4)C3=O)CC2=O)cc1` (stereo not given), the z-score is -0.146.

The compound `CC1CCN(C(=O)CN2C(=O)c3ccccc3S2(=O)=O)CC1` registered a z-score of -0.102.

Turning to `COc1ccc(CC(=O)Nc2ccc(-c3cn4ccc(C)cc4n3)cc2)cc1`, the z-score came out at 0.488.

Take `CCC(C)C(NC(=O)OC(C)(C)C)C(=O)NC(CC(C)C)C(N)=O` (stereo not drawn) (Boc-Ile-Leu-NH2; configuration not given here): the z-score came out at 0.0967.

For `CC1CN(CC(=O)N2CCc3[nH]c4ccccc4c3C2)CC(C)O1` (stereo not given), the z-score is -0.0326.

Compound `C=CCn1c(SCC(=O)Nc2ccccc2C)nc2sc(C)c(C)c2c1=O` displayed a z-score of 0.133.

For `COc1cc(OC)c(NC(=S)Nc2cccc(C(C)=O)c2)cc1Cl`, the z-score worked out at 0.241.

The compound `Cc1ccc(N=Nc2c(=O)[nH]n3c(C)cc(C)nc23)cc1` yielded a z-score of -0.121.

`CCOC(=O)C1=NN(C(C)=O)C2(CC(=O)N(c3cc(C)cc(C)c3)C2=O)C1` (stereo not given): the z-score is -0.292.

For `COc1cc(CC(C#N)(CO)c2nc3ccccc3[nH]2)ccc1OC(F)F` (stereo not given), the z-score was -0.212.

`CCCNC(=S)Nc1ccc(Oc2ccccc2)cc1` gave a z-score of 0.463.

In turn, `COc1cc(C(=O)N/N=C/C2CC=CCC2)cc(OC)c1OC` (stereo not given) returned a z-score of -0.344.

In the case of `CN(C)c1ccc(C(=O)N2CC(=O)N(CCc3ccccc3)C(=O)C2)cc1`, the z-score was -0.365.

`CC(=O)Nc1ccc(S(=O)(=O)Nc2nc3c(s2)CCCC3)cc1` had a z-score of -0.279.

In turn, `Cc1noc(C)c1S(=O)(=O)N(C)CC(=O)Nc1ccc(F)cc1` gave a z-score of -0.459.

In the case of `Cc1ccc(NC(=O)COC(=O)c2ccc([N+](=O)[O-])s2)c(C)c1`, the z-score is 0.229.

For the compound `N#CC1=C(N)Oc2n[nH]c(-c3cccs3)c2C1c1cccnc1` (stereo not given), the z-score is -0.306.

With `Cc1c(Br)cc(C(=O)O)c(C)c1C`, the z-score turned out to be 0.0555.

On to `O=C(N1CCCCC1)N1CCN(c2ccc(Cl)cc2)CC1`, for which the z-score is -0.389.

The compound `CC(CCO)Nc1nc2c([nH]1)c(=O)n(C)c(=O)n2C` (stereo not given) came in with a z-score of -0.0354.

In turn, `CCOc1ccc(N/C=C/C(=O)c2ccc(C)cc2)c([N+](=O)[O-])c1` registered a z-score of 0.012.

Consider `CC(Oc1cc(-c2ccccc2)cc2ccccc12)C(=O)N1CCOCC1` (stereo not given), for which the z-score stood at 0.0871.

Consider `CC(=O)NC1N=C(C)N(c2ccccc2)C1=O` (stereo not given), for which the z-score turned out to be 0.375.

For `CCc1ccccc1NC1=NCC(=O)N1Cc1ccc(OC)cc1`, the z-score amounted to 0.186.

`CCCCn1nnnc1NCc1cc(OC)c(OC)cc1OC` returned a z-score of -0.663.

As to `CCn1c(CNC(=O)c2ccc(OC)cc2)nnc1SC`, the z-score came to 0.0397.

As for `CC(=C/c1ccco1)/C=N/NC(=O)Cc1cccn1C`, the z-score was -0.121.

Source of the values: PubChem BioAssay AID488969 (Vanderbilt High Throughput Screening Facility, 2010).
